Results published in PubChem BioAssay (NCI).
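Compound exposure: 48 hours, 5 concentrations, 96-well plates. The concentration for 50% growth inhibition is given as GI50. TGI is the concentration that stops growth completely.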

System: NCI-H322M lung
Experiment: NCI tumour cell line growth inhibition, 48 h

Row | SMILES | GI50 [µM] | TGI [µM]
1 | Cn1cc(/C=N/Nc2ccnc3cc(Cl)ccc23)c2ccccc21 | 1.44 | 2.75
2 | CCN1CCN(Cc2ccc(C(=O)Nc3cccc(-c4cn(-c5ccc6oc(=O)ccc6c5)nn4)c3)cc2C(F)(F)F)CC1 | 16.9 | 30.8
3 | CCOc1ccccc1[C@H]1C(C(=O)c2ccc(Cl)cc2)C2(N[C@@H]1c1ccccc1)C(=O)Nc1ccc(Cl)cc12 (stereo partly specified) | > 18.8 | > 18.8
